Data reported in article PMC4336329 (PLoS ONE, 2015).
The campaign covered roughly 310,000 compounds. About 14,000 (4.5%) showed an effect of 50% or more. The effect is printed as a negative number. The list shows a part of the results.

Biological target: human ether-à-go-go-related gene (hERG) potassium channel (human, UniProt Q12809)
Experiment: primary screen, population patch clamp on CHO cells stably expressing hERG
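Also: peak tail current of the secondary pulse compared with the same well before compound.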

human ether-à-go-go-related gene (hERG) potassium channel, sequence (Q12809 whole entry, looked up): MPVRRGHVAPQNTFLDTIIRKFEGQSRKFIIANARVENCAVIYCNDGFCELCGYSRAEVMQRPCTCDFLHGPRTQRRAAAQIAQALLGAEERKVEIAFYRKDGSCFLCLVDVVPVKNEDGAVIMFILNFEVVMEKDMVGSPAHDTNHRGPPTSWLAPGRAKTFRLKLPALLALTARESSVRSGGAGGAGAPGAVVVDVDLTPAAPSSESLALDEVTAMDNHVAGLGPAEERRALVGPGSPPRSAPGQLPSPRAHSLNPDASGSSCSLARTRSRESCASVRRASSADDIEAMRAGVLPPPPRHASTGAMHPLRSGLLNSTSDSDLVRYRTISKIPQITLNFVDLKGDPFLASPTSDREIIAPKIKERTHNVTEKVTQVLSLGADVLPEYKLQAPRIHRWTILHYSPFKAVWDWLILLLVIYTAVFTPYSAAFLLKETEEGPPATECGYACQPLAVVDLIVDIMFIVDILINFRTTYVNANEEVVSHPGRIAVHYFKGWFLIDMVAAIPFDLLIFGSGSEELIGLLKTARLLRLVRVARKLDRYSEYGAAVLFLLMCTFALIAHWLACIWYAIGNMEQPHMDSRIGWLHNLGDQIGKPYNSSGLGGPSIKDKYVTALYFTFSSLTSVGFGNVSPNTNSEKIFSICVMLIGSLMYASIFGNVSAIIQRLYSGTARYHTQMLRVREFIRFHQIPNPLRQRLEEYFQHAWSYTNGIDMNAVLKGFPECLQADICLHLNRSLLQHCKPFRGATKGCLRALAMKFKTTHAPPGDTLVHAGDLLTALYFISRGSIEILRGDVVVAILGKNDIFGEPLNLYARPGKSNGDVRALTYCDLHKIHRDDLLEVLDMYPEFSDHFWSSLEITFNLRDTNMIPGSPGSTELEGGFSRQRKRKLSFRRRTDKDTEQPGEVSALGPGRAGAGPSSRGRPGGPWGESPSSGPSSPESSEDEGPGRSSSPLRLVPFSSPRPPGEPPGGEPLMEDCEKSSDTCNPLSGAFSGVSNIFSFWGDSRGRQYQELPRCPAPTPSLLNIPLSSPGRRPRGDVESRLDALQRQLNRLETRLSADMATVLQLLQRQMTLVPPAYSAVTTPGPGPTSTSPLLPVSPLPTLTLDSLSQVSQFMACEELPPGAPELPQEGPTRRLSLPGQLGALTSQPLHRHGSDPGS

SMILES	hERG current change (%, negative = inhibition) at 10uM
Cc1ccccc1-n1c(Cn2c(=O)sc3ccccc32)nnc1SCC(=O)NCC1CCCO1 (centres unmarked)	-2.85%
Cc1cc2c(nn1)CCc1c-2no[n+]1[O-]	17.1%
CCOc1ccc(CCNC(=O)C2CCN(S(=O)(=O)N3CCCCC3)CC2)cc1OCC	-12.4%
COc1cccc(-c2ncc3ccccc3c2COC(=O)c2ccc(C(C)(C)C)cc2)c1	13.3%
O=C(c1cc(-c2ccc(Cl)c(Cl)c2)on1)N1CCCCC1	-16.9%
COc1ccc(-c2csc(NC(=S)NC(=O)/C=C/c3ccccc3)n2)cc1Br	20.1%
C=CCN1C(=O)c2oc3ccccc3c(=O)c2C1c1ccc(O)c(OC)c1 (centres unmarked)	10.7%
COc1ccc2[nH]c(C)c(CCN3C(=O)OC(C)(C)C3(C)O)c2c1 (centres unmarked)	9.02%
O=C(Nc1ccccc1F)C1COc2ccccc2O1 (centres unmarked)	7.79%
COC(=O)c1c(NC(=O)COC(=O)CCNS(=O)(=O)c2ccc(NC(C)=O)cc2)sc(C)c1C	-15.8%
O=C(Cn1cnc2c(cnn2-c2ccc(Cl)cc2)c1=O)NCCc1ccccc1	13.3%
Cc1ccc(CN2CCCN(C)CC2)c(C)c1	11.4%
O=C(C1CCN(S(=O)(=O)N2CCC3(CC2)OCCO3)CC1)N1CCOCC1	19.9%
COc1ccc2c(-c3ccccc3)cc(=O)[nH]c2c1	1.14%
COc1ccc(C(=O)N2CCc3cc(OC)c(OC)cc3C2c2ccc(OC)c(OC)c2)cc1OC (centres unmarked)	1.43%
O=C1OCCN1CCN(CN1C(=O)CCC1=O)CN1C(=O)CCC1=O	2.25%
Cc1ncc(CN2CCCC(C(=O)c3sccc3C)C2)s1 (centres unmarked)	24.7%
Cc1ccc(NC(=O)COC(=O)c2ccc3c(=O)n4c(nc3c2)CCC4)c(Br)c1	14%
Cc1cc(OCC(=O)N2CCC(C(N)=O)CC2)c2c3c(c(=O)oc2c1)CCCC3	0.283%
CC(NC(=O)CN1C(=O)NC2(CCCCCC2)C1=O)c1ccccc1Cl (centres unmarked)	-7.3%
Cc1cc(N2C(=O)C3CC=CC(C)C3C2=O)no1 (centres unmarked)	16.5%
COc1ccc(/C=C/C2=CCN(C)CC2)cc1.Cl	-19.7%

SMILES	hERG current change (%, negative = inhibition) at 10uM
CCOC(=O)C(NC(=O)Cc1ccccc1)(Nc1cc(C)on1)C(F)(F)F (centres unmarked)	3.97%
O=C(COC(=O)/C=C/c1ccc(F)cc1)Nc1ccccc1-c1ccccc1	13%
CN(CCC1CCOCC1)C(=O)C1CCC(=O)N(CCc2ccccc2)C1 (centres unmarked)	-15.1%
CSc1ccccc1C(=O)N1CCC(CCC(=O)NCc2ccc(F)cc2)CC1	-12.4%
O=C(O)c1ccccc1-n1c(-c2ccccc2)cc2c1CCCC2=O	10.4%
S=C(NCc1ccc(Cl)cc1)Nc1ccc(Cl)cc1Cl	5.81%
CCn1c(COc2cccc(C)c2)nnc1SCC(=O)Nc1cccc(C(=O)OC)c1	-2.45%
Cn1cc(S(=O)(=O)NCc2cccs2)c(=O)n(C)c1=O	3.21%
COc1ccc(OC(=O)CN2C(=O)C3C4CCC(C4)C3C2=O)cc1 (centres unmarked)	4.71%
O=C(O)CCC(=O)N1N=C(c2ccc(Br)cc2)CC1c1cccc(Br)c1 (centres unmarked)	10.1%
COC(=O)C(Cc1ccc(O)cc1)NC(=O)CCC(=O)Nc1ccc(S(N)(=O)=O)cc1 (centres unmarked)	-1.23%
Cc1nc(N2CCN(Cc3ccccc3)CC2)c(C#N)c2c1COC(C)(C)C2	-5.21%
CCOC(=O)C1CN(S(=O)(=O)c2ccc(C)cc2)c2ccccc2O1 (centres unmarked)	16.8%
COc1cccc(CN2CCc3[nH]c(=S)[nH]c(=O)c3C2)c1	15.9%
COc1ccc(CCNCc2ccccc2F)cc1OC.Cl	-7.61%
COc1cccc(CN(C(=O)Cc2c[nH]c3ccccc23)C(C(=O)NC2CCCCC2)c2cccs2)c1 (centres unmarked)	33.9%
COc1cccc(/C=N/c2nc3ccccc3n2C)c1O	8.75%
CCCc1nnc(NC(=O)CCC(=O)NC2CCCC2)s1	7.93%
CN(C)S(=O)(=O)c1cccc(COc2cccnc2[N+](=O)[O-])c1	-5.22%
COc1ccccc1N(C)S(=O)(=O)c1ccc(C(=O)NC(C)(C)C)cc1	-0.104%
C/C=C(\C)C(=O)NCCN1C2=NC[C@@H](C)N2C[C@@H]1Cc1ccc(OC)cc1	0.0958%
COc1ccc(NC(=O)C2CCN(C(=O)Cc3ccccc3)CC2)c(OC)c1	20.1%
